Source: a collection of fitness landscapes (doi:10.1016/j.celrep.2020.107928)
Over roughly 81,000 sequences, “one-hybrid fitness for binding parS DNA” has its median near -0.17; the highest 2% begin near 0.51. This is one part of the list.

B1: Caulobacter ParB omega fusion; a variant is named by its letters at X, in order, B8GW30 (parent)
chain: MESVVVGEPGMSEGRRGLGRGLSALLGEVDAAPAQAPGEQLGGSREAPIEILQRNPDQPRRTFREEDLEDLSNSIREKGVLQPILVRPSPDTAGEYQIVAGERAWRAAQRAGLKTVPIMVRELDDLAVLEIGIIENVQRADLNVLEEALSYKVLMEKFERTQENIAQTIGKSXSHVANXMRLLXLPDEVQSYLVSGELTAXHARAIAAAADPVALAKQIIEGGLSVRETEALARKAPNLSAGKSKGGRPPRVKDTDTQALESDLSSVLGLDVSIDHRGSTGTLTITYATLEQLDDLCNRLTRGI

Variants of: B1
Assay: one-hybrid fitness for binding parS DNA (scaled: cognate 1, non-cognate 0); higher = stronger binding
Conditions: with parS DNA site
Summary of the method: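 Values were rescaled so that cognate is 1 and non-cognate is 0. Each is a fitness, the log change in a variant's read ratio to wild type from Illumina reads of plasmids before and after selection, with three replicate libraries pooled and variants under 10 reads dropped. Selection of the Caulobacter ParB libraries, four specificity codons randomised, used E. coli USO with a HIS3 reporter, site 19 bp from the promoter, on M9-minus-histidine with 0.1 mM IPTG and 5 mM 3-AT for 48 hours at 37°C.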

one-hybrid fitness for binding parS DNA, 0.966:
RVCC

one-hybrid fitness for binding parS DNA, 0.247:
RCHW

one-hybrid fitness for binding parS DNA, ≤ 0.2:
HKIE
EACL
FGMF
RSGV
KFNG
CSIV
SLYQ
AQMR
YYHR
YTTT
WDVG
SVHE
PICL
CIGT
IQNS
CQRC
NAYC
LRAL
AVQD
PLNC
EVYC
LCNR
EKVT
RPES
GNYQ
VCRE
MQMS
GNWP
HISS
LFFG
DIVV
MWKR
YFHC
DVPP
ALID
MKKY
LSFF
ISTT
DHMG
VTKR
KGLV
QVQR
ASNV
ALHN
YATG
QRVG
ATEG
HIQT
ESWT
KDST
SIGL
KKVI
TNNT
WQHS
LRQC
KRMG
EQHR
MTSW
WTNG
RPRY
CARA
TVAC
CFIT
GFHG
TAIV
QEAP
VAKF
QQLA
ITNS
HYDR
KKPR
HEWF
HKCM
GCGC
FYSW
TMII
TIKR
TTHC
YNPY
LKEC
MWWA
LPYT
QSFL
SNAW
ADFC
CWSD
EDSL
LQMM
YIDC
GMLI
GEQY
PPQT
GTNA
HCMM
KNEP
MMTG
QMPE
NFNG
PMAN
FPNL
HDVT
MQQT
FRYS
LPWA
HHSI
KLCT
LCIM
AYQF
QVKI
NLED
IKQM
QYCV
QIDL
WSIT
SFMR
IEAV
YYTT
RILD
GRSM
TFYD
FDNY
YIKT
QLRT
NREM
ALIE
ECRA
SGND
LHQG
AMPK
ETRT
PMHN
LKTA
VPKL
MRGL
RFCQ
MPIT
WPPD
QHYS
MTVL
GMNW
QSWA
KQCT
LLRE
ELHR
QAPP
FGPR
QRPA
NYDG
GGDN
QRNK
PSPA
ARQE
DTGW
RTQE
QIIF
NPWK
DAFS
YDPP
KSIR
APLA
LKRR
NFTS
RWDI
SIES
PYML
ASNF
TCEI
GHGS
SYNC
PDVC
QCVC
GRFS
IARD
QRNF
LHAE
VSRK
LMEY
TDHP
NHFV
NDMY
PYNW
QRWL
PVCG
IFLC
QTIA
FITT
TIKP
IECV
EPRY
QNYV
KWSA
CYET
CPNS
LCCE
VQEA
TQQT
SMGS
EDPS
KVHM
TNTL
NINK
GDYT
SRLM
RQFQ
YRKM
RFLW
DLQL
MLVH
IPFG
MCMT
WFTF
PHRV
AVHA
SRFT
ITHS
QARG
FWAR
PQGG
QYDD
TTTI
QDQW
IYHA
RERM
ALLC
DTYL
LGHC
RWKD
KETI
QYDI
DANT
TNWP
QSAH
GTET
HMQG
NMNL
AAGV
WTGF
EQIL
VSVM
GDKG
LHGT
TNHM
QDFN
LWVV
EAQE
STFS
HGIV
NLMQ
MKSD
YHSA
WACR
TRFR
KSCD
SVTE
EYQG
HPNA
GRNG
AWYP
ECLN
RMEH
APKG
CSTV
ICNV
DGQG
RDGF
VEYG
NGTA
ERHT
HTKS
KLPR
IMSY
GSVL
KLYF
NDYC
LLCR
EYKC
SIQT
RDLT
RQFD
MEPG
QAWY
KYSG
AHTC
MCAS
DAQT
GRQS

one-hybrid fitness for binding parS DNA, 0.947:
RMIG

one-hybrid fitness for binding parS DNA, 0.345:
RCTM

one-hybrid fitness for binding parS DNA, 0.995:
RLCC

one-hybrid fitness for binding parS DNA, 0.865:
RHAT

one-hybrid fitness for binding parS DNA, 0.223:
RMDF
KCWK

one-hybrid fitness for binding parS DNA, 0.661:
RIGA

one-hybrid fitness for binding parS DNA, 0.534:
RGCC

one-hybrid fitness for binding parS DNA, 0.993:
RILG

one-hybrid fitness for binding parS DNA, 0.777:
RMRY

one-hybrid fitness for binding parS DNA, 0.262:
RMCH
VKCS

one-hybrid fitness for binding parS DNA, 0.238:
RGHA

one-hybrid fitness for binding parS DNA, 0.921:
RQNS

one-hybrid fitness for binding parS DNA, 0.889:
RYHT

one-hybrid fitness for binding parS DNA, 0.346:
MEPH

one-hybrid fitness for binding parS DNA, 0.968:
RSHC

one-hybrid fitness for binding parS DNA, 0.28:
RARF
